# Assay results from PubChem BioAssay AID485294 (National Center for Advancing Translational Sciences (NCATS), 2010).
# The campaign covered roughly 370,000 compounds. About 150 (0.041%) were called active. This list was built around the results that the source calls inconclusive (neither active nor inactive); the mix of calls is not that of the screen. Calls come from the whole dose curve; as a rule, active = well fitted inhibition curve with a large enough effect; inconclusive = small, poorly fitted or top-dose-only effect; inactive = flat fitted curve, though single readings scatter. Potencies of inconclusive entries are left out as doubtful fits.
# Molecular target: Beta-lactamase (Escherichia coli (strain K12)) (UniProt P00811)
# Experiment: qHTS Inhibitors of AmpC Beta-Lactamase (assay with detergent); note: nearly all actives have a fitted effect of over 25% in size;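 for activity change, negative = inhibition: 0% = no-compound wells and -100% = no-enzyme wells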
# Settings: AmpC hydrolysis of nitrocefin, absorbance 480 nm, 0.01% Triton; activity change, negative = inhibition: at 114 µM (top of the series)
# In short: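 20 mM phosphate pH 7.0 + 0.01% (detergent screen) or 0.0001% Triton X-100; 5.3 nM AmpC reagent; cpd preinc 15 min RT; nitrocefin (800 uM stock) to start; A480 q20 s × 4 min; Activity was normalised to no-enzyme and no-compound control wells.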
# Potency is the fitted concentration of half-maximal effect; tags give direction and shape of the fitted curve.
# Chain of UniProt P00811 (P00811 whole entry, looked up): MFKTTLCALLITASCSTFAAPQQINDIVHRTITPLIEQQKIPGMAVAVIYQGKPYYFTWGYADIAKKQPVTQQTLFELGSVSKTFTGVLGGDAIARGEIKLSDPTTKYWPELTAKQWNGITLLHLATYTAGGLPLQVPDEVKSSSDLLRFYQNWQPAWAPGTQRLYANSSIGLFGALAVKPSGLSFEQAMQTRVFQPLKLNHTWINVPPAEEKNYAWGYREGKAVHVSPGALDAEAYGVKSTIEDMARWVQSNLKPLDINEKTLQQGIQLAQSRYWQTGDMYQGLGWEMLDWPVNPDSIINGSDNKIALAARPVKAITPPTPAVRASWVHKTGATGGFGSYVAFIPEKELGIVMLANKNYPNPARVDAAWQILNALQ
Compound,Potency,"activity change, negative = inhibition"
Cc1ccc(OCc2nnc(SCc3nc4ccccc4[nH]3)n2Cc2ccco2)cc1,"inconclusive [inhibitor, full curve, poor fit]",
O=C(NNC(=O)c1cccs1)c1ccc2ccccc2c1,,inactive: 0%
O=CN1CCN(CC(O)Cn2c3ccccc3c3ccccc32)CC1 (configuration not stated),"inconclusive [inhibitor, full curve]",
O=C(Cc1cccs1)Nc1c(C(=O)Nc2ccc(F)cc2)oc2ccccc12,,inactive: 9.46%
CC1CCN(C(=O)C2CCN(S(=O)(=O)c3cccnc3)CC2)CC1,"inconclusive [inhibitor, full curve, poor fit]",
CC(C)n1c(CCC(=O)O)ccc1-c1ccccc1,"inconclusive [inhibitor, partial curve, poor fit]",
CCOC(=O)c1ccccc1NC(=O)[C@@H]1CCCN1C(=O)OC(C)(C)C,"inconclusive [inhibitor, full curve, poor fit]",
CCN(c1ccccc1)S(=O)(=O)c1cc2c(cc1C)NC(=O)CO2,"inconclusive [inhibitor, partial curve, poor fit]",
O=C(Nc1ccccc1Oc1ccccc1)c1ccc(Br)o1,"inconclusive [inhibitor, full curve, poor fit]",
COc1cccc(OCc2cc(C(=O)N(C)CCC3CCCCO3)no2)c1 (configuration not stated),"inconclusive [inhibitor, partial curve, poor fit]",
COc1ccc(-c2cc(C(F)(F)F)nc(SCC(=O)Nc3cc(C)on3)n2)cc1OC,"inconclusive [inhibitor, full curve, poor fit]",
O=C(CNS(=O)(=O)c1ccc(F)cc1)N1CCOCC1,"inconclusive [inhibitor, single point]",
CCOC(=O)c1c(C)n(C)c2ccc(OCC(O)CN3CCCCCC3)cc12 (configuration not stated),"inconclusive [inhibitor, full curve, poor fit]",
COc1ccc(NC(=O)CSc2ncc(-c3ccc(F)cc3)n2Cc2ccco2)cc1,"inconclusive [inhibitor, full curve, poor fit]",
Cn1cnc(S(=O)(=O)N2CCCC(C(=O)NCc3ccc(Cl)cc3)C2)c1 (configuration not stated),,inactive: 2.36%
CCN(CC)S(=O)(=O)c1ccc2c(c1)N(CC(=O)N1CCN(c3ccc(OC)cc3)CC1)C(=O)CO2,,inactive: 1.49%
COc1c(-c2ccccc2)oc2c(ccc3occc32)c1=O,"inconclusive [inhibitor, full curve]",
CN1CCN(c2ccc(NC(=O)c3ccccc3Br)cc2)CC1,,inactive: -11.7%
COCCn1c(N2CCN(c3ccc(OC)cc3)CC2)nc2c1c(=O)[nH]c(=O)n2C,"inconclusive [inhibitor, full curve, poor fit]",
Cc1ccc(C(=O)Cn2c(C(=O)OCCO)cc3ccccc32)cc1,"inconclusive [inhibitor, partial curve, poor fit]",
O=C(c1ccc(NS(=O)(=O)c2ccc(F)cc2)cc1)N1CCCCC1,"inconclusive [inhibitor, full curve, poor fit]",
CCN(Cc1ccccc1)C(=O)c1cc(-c2ccccc2)n[nH]1,"inconclusive [inhibitor, single point]",
O=C(O)CSC1CC(=O)N(c2ccc(Br)cc2)C1=O (configuration not stated),,inactive: 0.899%

Compound,Potency,"activity change, negative = inhibition"
O=P(O)(O)c1ccccc1OCCOCCOCCOCCOc1ccccc1P(=O)(O)O,"inconclusive [inhibitor, partial curve]",
CCOc1ccc(CCNC(=O)c2cc3c(=O)n(CC)c4ccccc4c3s2)cc1OCC,,inactive: -4.68%
O=C(COCc1cc(-c2cccs2)on1)NC1CCCCC1,"inconclusive [inhibitor, full curve, poor fit]",
CC(C)(C)C(=O)N1CCc2cc(-c3csc(N)n3)ccc21,,inactive: -9.11%
Cc1cccc(NC(=O)CNC(=O)Cn2cc(C(F)(F)F)cc(Cl)c2=O)c1C,"inconclusive [inhibitor, full curve]",
CCCCc1ccc(NC(=S)NCC2CCCO2)cc1 (configuration not stated),"inconclusive [inhibitor, partial curve]",
CCCN(CCC)S(=O)(=O)c1cccc(-c2csc(C)n2)c1,,inactive: 0.861%
Clc1ccc(/C=N/N2CCN(Cc3ccccc3)CC2)cc1,"inconclusive [inhibitor, partial curve, poor fit]",
O=C(CSc1nc(=O)[nH]c2c1CCCC2)NCc1ccccc1Cl,,inactive: 9.89%
CCCCCC(=O)Nc1cccc(C2=NOC3(C2)C[C@@H](C(N)=O)N(C(=O)Cc2ccc([N+](=O)[O-])cc2)C3)c1 (some centres not stated),,inactive: 3.59%
O=C(O)c1ccc(-n2ncc3c2/C(=C/c2cccc([N+](=O)[O-])c2)CC3)cc1,"inconclusive [inhibitor, single point]",
CCN(CC(=O)Nc1ccc(OC)cc1)C(=O)c1ccccc1Sc1ccccc1C#N,"inconclusive [inhibitor, partial curve, poor fit]",
COc1ccc(N2CCN(C(=O)C3CCCN(C(=O)c4cc5sccc5n4C)C3)CC2)cc1 (configuration not stated),,inactive: -0.711%
CCCCN(C(=O)NC(=O)Nc1nc2ccc(OC)cc2s1)S(C)(=O)=O,,inactive: 0.952%
CCCc1nnc(NC(=O)c2cc(=O)c3ccccc3o2)s1,,inactive: 13.5%
Cc1ccc(N(CC(=O)NCc2ccco2)C(=O)CCC(=O)Nc2nccs2)cc1,"inconclusive [inhibitor, full curve, poor fit]",
O=C(/C=C/c1cccc(Cl)c1)NCc1cccs1,,inactive: 2.05%
NC(=NCCCCCCN=C(N)/N=C(\N)Nc1ccc(Cl)cc1)/N=C(\N)Nc1ccc(Cl)cc1,"inconclusive [inhibitor, full curve, poor fit]",
Cc1cccc(/C=N/NC(=O)c2ccc(NC(=O)c3ccccc3C)cc2)n1,"inconclusive [inhibitor, partial curve, poor fit]",
CCCCNC(=O)c1c(-c2ccccc2)c(-c2ccccc2)nn(C)c1=O,,inactive: 2.21%
CCN(C(=O)c1cccc(S(=O)(=O)N2CCCCC2)c1)C1CCS(=O)(=O)C1 (configuration not stated),"inconclusive [inhibitor, full curve, poor fit]",
Cc1cc(C)n2nc(N)c(N=Nc3ccc(Cl)cc3)c2n1,"inconclusive [inhibitor, partial curve]",
COc1ccc(-c2oc3ccccc3c(=O)c2OC(C)=O)cc1,"inconclusive [inhibitor, full curve]",

Compound,Potency,"activity change, negative = inhibition"
O=S(=O)(c1cnccc1N1CCN(/N=C/c2ccccc2)CC1)N1CCCCC1,"inconclusive [inhibitor, partial curve]",
Cc1ccc(C)c(N2CCN(C(=O)c3cc4c(C)nc5ccccc5c4o3)CC2)c1,"inconclusive [inhibitor, full curve, poor fit]",
CC(CN1CCOCC1)OC(=O)c1cccc(Br)c1 (configuration not stated),"inconclusive [inhibitor, full curve, poor fit]",
C/C(=N/NC(=O)Cc1cccc2ccccc12)c1cccs1,,inactive: -13.8%
O=C(NCCc1c[nH]c2ccccc12)c1cnc2sccn2c1=O,"inconclusive [inhibitor, full curve]",
CCOc1ccc(N(CC(=O)NCCSCc2ccccc2)S(C)(=O)=O)cc1,"inconclusive [inhibitor, partial curve]",
COC(=O)C1(CCSC)NC(c2ccc(O)cc2)C2C(=O)N(c3ccc4c(c3)OCCO4)C(=O)C21 (configuration not stated),"inconclusive [inhibitor, full curve, poor fit]",
CCOC(=O)c1cnc(SSc2ncc(C(=O)OCC)c(N)n2)nc1N,"inconclusive [inhibitor, partial curve, poor fit]",
COC(=O)C(C(=O)N1CCN(C)CC1)C1CCCCCC1 (configuration not stated),"inconclusive [inhibitor, full curve, poor fit]",
O=C(NCCc1ccccc1)C1CCCN(C(=O)Nc2ccc(F)cc2)C1 (configuration not stated),"inconclusive [inhibitor, full curve, poor fit]",
COc1ccc(CCC(C)NCc2cc(OC)cc(OC)c2)cc1 (configuration not stated),,inactive: 2.03%
COCCN(Cc1nc(-c2ccc(-c3ccccc3)cc2)oc1C)C(C)C,"inconclusive [inhibitor, full curve, poor fit]",
Cc1ccccc1CN1c2ccccc2-c2nc(SCC(=O)c3ccccc3)ncc2S1(=O)=O,,inactive: -3.63%
CCC(=O)N(Cc1ccco1)c1nc(-c2ccccc2)cs1,"inconclusive [inhibitor, full curve, poor fit]",
NC(=O)C1CCCN(Cc2ccc3ccccc3c2)C1 (configuration not stated),"inconclusive [inhibitor, partial curve, poor fit]",
Cc1c(C(=O)OC2CCC(C)CC2)[nH]c2c1C(=O)CCC2 (configuration not stated),"inconclusive [inhibitor, full curve, poor fit]",
Cn1c(N)c(C(=O)COC(=O)CCCc2c[nH]c3ccccc23)c(=O)n(C)c1=O,"inconclusive [inhibitor, partial curve, poor fit]",
COC(=O)c1oc2ccc(Cl)cc2c1N,"inconclusive [inhibitor, full curve, poor fit]",
CC(C)c1ccc(C(C(=O)NC2CCCCC2)N(C(=O)c2csnn2)C2CC2)cc1 (configuration not stated),,inactive: 3.23%
COc1ccc(-c2oc3ccccc3c2C(=O)OCc2ccccc2)cc1,,inactive: -6.38%
CC(C)N(c1ccccc1)c1ncnc(NCCC(=O)O)c1[N+](=O)[O-],"inconclusive [inhibitor, full curve, poor fit]",
